Experimental data reported in PubChem BioAssay AID504339 (National Center for Advancing Translational Sciences (NCATS), 2011).
Where “and” joins values, the source holds several entries; their conditions need not be identical. Equal entries are not always repeated. The whole screen tested about 390,000 compounds, of which about 17,000 (4.4%) were called active. Inconclusive results, whose numbers are uncertain, are shown with a selection of clear calls. Calls follow the shape of the dose curve; as a rule, active = well fitted inhibition curve with a large enough effect; inconclusive = small, poorly fitted or top-dose-only effect; inactive = no such curve, though single readings can be large or run the other way. Potencies of inconclusive entries are doubtful fits and often do not repeat. Some structures have more than one record in an assay (separate samples or runs), and their calls can disagree.

Biological target: Lysine-specific demethylase 4A (Homo sapiens) (UniProt O75164)
Assay: qHTS Assay for Inhibitors of JMJD2A-Tudor Domain; also: nearly all actives have a fitted effect of over 50% in size
Settings: AlphaScreen JMJD2A-Tudor / H3K4me3 peptide binding; activity change, negative = inhibition: at 114 µM (top of the series)
% is scaled to controls: 0 for no effect and ±100 for the full control effect; potency is read from the fitted curve at half-maximal effect; tags tell the direction and shape of the fitted curve.

Sequence of UniProt O75164 (O75164 whole entry, looked up, the tested form may be a part): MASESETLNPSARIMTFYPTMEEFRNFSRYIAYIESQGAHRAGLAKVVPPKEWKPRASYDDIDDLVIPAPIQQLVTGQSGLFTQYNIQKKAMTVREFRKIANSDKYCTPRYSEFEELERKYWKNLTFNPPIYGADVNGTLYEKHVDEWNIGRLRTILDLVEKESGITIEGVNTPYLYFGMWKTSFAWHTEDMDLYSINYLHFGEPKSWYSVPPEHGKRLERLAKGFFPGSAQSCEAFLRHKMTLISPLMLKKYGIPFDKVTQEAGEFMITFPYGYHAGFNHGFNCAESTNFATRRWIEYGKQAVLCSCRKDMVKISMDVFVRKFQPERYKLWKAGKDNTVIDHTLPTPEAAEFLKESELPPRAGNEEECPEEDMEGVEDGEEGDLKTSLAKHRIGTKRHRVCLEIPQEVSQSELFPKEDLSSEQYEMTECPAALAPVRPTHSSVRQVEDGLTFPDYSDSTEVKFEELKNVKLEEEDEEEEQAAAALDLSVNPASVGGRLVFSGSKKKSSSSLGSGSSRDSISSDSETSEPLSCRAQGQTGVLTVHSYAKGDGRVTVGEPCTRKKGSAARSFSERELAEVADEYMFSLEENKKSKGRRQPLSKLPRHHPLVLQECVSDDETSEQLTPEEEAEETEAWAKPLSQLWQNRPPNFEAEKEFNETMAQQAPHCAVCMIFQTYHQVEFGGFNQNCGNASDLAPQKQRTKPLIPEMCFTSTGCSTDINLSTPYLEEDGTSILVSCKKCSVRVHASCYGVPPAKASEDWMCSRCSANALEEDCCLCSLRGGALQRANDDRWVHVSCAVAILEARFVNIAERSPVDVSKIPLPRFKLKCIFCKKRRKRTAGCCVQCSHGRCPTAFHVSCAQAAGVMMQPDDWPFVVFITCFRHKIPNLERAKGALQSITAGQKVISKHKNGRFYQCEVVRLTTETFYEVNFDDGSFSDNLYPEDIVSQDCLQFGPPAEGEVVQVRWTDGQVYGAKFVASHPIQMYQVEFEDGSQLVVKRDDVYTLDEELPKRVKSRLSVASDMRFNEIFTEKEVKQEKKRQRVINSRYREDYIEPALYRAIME

Potency, inactive and 25.1 µM (active):
CCOc1cc(C(=O)Nc2cc3c(cc2N2CCOCC2)n(C)c(=O)n3C)cc(OCC)c1OCC

Potency, active:
CN(C)c1ccc(/C=C(/NC(=O)c2ccccc2)C(=O)N/N=C/c2ccc([N+](=O)[O-])c(O)c2)cc1 44.7 µM
O=C(O)c1ccc2cccnc2n1 7.08 µM
Cc1ccc(O)c(C(=O)/C=C/c2ccc3c(c2)OCCO3)c1 28.2 µM
CCOC(=O)c1ccc(NC(=O)CC2Sc3ncnn3C2=O)cc1 (stereo not drawn) 7.94 µM
CCc1ccc(C(=O)c2cn(CC(=O)Nc3ccc4c(c3)OCO4)c3ccc(OC)cc3c2=O)cc1 8.91 µM
C=CCNCCCCOc1ccc(OCc2ccccc2)cc1 35.5 µM
O=C(c1ccc(-c2cccc(Cl)c2)o1)N1CCN(c2ccc([N+](=O)[O-])cc2)CC1 39.8 µM
Cc1ccc(S(=O)(=O)Nc2c(C(=O)O)[nH]c3ccccc23)c(C)c1 56.2 µM
CC(C)(C=O)C1=CC(=O)c2ccccc2C1=O 25.1 µM
Cc1[nH][nH]c(=O)c1C(c1c(C)[nH][nH]c1=O)c1cn(Cc2ccc(F)cc2)c2ccccc12 50.1 µM
Oc1ccc(-c2n[nH]c(=S)n2-c2ccc3c(c2)OCCO3)c(O)c1 10 µM

Potency, inconclusive:
CCC(C)N=Cc1c(Nc2ccccc2)nc2c(C)cccn2c1=O (stereo not drawn) 12.6 µM [inhibitor, full curve]
COc1ccc(C(=O)Oc2c(CN3CCOCC3)cc(Cl)c3cccnc23)cc1 89.1 µM [inhibitor, single point]
Cc1ccc(NC(=O)CSc2ncn[nH]2)cc1C 89.1 µM [inhibitor, single point]
COC(=O)c1ccc(-n2c(CCC(=O)O)ccc2-c2ccc(C)cc2)cc1 50.1 µM [inhibitor, partial curve]
Cc1cc2nc3ccc(N(C)C)cc3nc2cc1N 50.1 µM [inhibitor, partial curve, poor fit]
COc1ccc(N2CCN(C(CNC(=O)c3cccc(Cl)c3)c3cccnc3)CC2)cc1 (stereo not drawn) 79.4 µM [inhibitor, single point]
Cc1ccc(C)c(N2CCN(Cc3nnc(-c4ccc5c(c4)OCO5)o3)CC2)c1 63.1 µM [inhibitor, partial curve]
CCn1c(C)c(C)c2cc(C(=O)NCCCN3CCCCC3)ccc21 56.2 µM [inhibitor, partial curve]
CCCc1cc(=O)[nH]c(/N=C(\N)Nc2ccccc2)n1 39.8 µM [inhibitor, single point]
CCCCc1ncc(CN2CCC(n3nccc3NC(=O)c3ccccc3OC)CC2)[nH]1 17.8 µM [inhibitor, partial curve, poor fit]
CC1Cc2cc(/C(O)=C3/C(=O)C(=O)N(CCCn4ccnc4)C3c3ccc([N+](=O)[O-])cc3)ccc2O1 (stereo not drawn) 50.1 µM [inhibitor, partial curve]
CCOC(=O)C(O)C1CCc2c([nH]c3ccc(C)cc23)C1=O (stereo not drawn) 28.2 µM [inhibitor, single point]
Cc1ccc(C)c(NC(=S)/C(=C(\[O-])c2ccc(Cl)s2)[n+]2ccccc2)c1 70.8 µM [inhibitor, partial curve]
COc1ccccc1CNc1cc(-c2ccccc2)ccc1OC 31.6 µM [inhibitor, partial curve]
Cc1ccc(OCC(=O)c2cc(C)n(-c3ccccc3)c2C)c([N+](=O)[O-])n1 50.1 µM [inhibitor, partial curve]
Cc1ccc(O)c(NC(=O)c2ccc(Br)c(S(=O)(=O)N3CCCCC3)c2)c1 44.7 µM [inhibitor, partial curve]
COc1ccc(OC)c(CNC(=O)C(C)n2c(C)c3cnn(-c4ccccc4)c(=O)c3c2C)c1 (stereo not drawn) 50.1 µM [inhibitor, partial curve]
CCOC(=O)CCN(c1ccccc1)S(=O)(=O)c1ccc(-c2ccc(=O)[nH]n2)s1 89.1 µM [inhibitor, single point]
COc1ccc(/C(C)=N/NC(=O)c2cccc(S(=O)(=O)N3CCCC3)c2)c(O)c1 39.8 µM [inhibitor, partial curve]
Cc1ccc(C(=O)C2=C(O)C(=O)N(Cc3ccco3)C2c2ccc(N(C)C)cc2)o1 (stereo not drawn) 50.1 µM [inhibitor, partial curve]
O=[N+]([O-])c1cc([N+](=O)[O-])c(Oc2cccc3ccccc23)cc1NN1CCCCC1 7.94 µM [inhibitor, partial curve]
CCOc1ccccc1CNC(=O)c1cc2oc3ccccc3c2n1C 17.8 µM [inhibitor, full curve, poor fit]
CCOC(=O)C1=C(c2ccccc2)NC(SC)=C(C#N)C1c1ccco1 (stereo not drawn) 56.2 µM [inhibitor, partial curve]
COC(=O)[C@]1(CC(C)C)N[C@H](c2ccc(-c3cccc(Cl)c3)cc2)[C@@H]2C(=O)N(C)C(=O)[C@@H]21 100 µM [inhibitor, partial curve, poor fit]
COc1ccc(Nc2oc(-c3ccco3)nc2S(=O)(=O)c2ccc(F)cc2)cc1 89.1 µM [inhibitor, partial curve]
CN(C)/C=C1\C=C(c2ccccc2)OC1=O 50.1 µM [inhibitor, partial curve]
CCN(CC)c1ccc(NC(=O)c2nc3nc(C)cc(C(F)F)n3n2)cc1 63.1 µM [inhibitor, partial curve]
COc1ccc(CCNc2nc(N3CCCCC3)nc(N3CCCCC3)n2)cc1OC 79.4 µM [inhibitor, partial curve]
CCOc1ccc(-c2nc(N)ncc2-c2ccc(OC)cc2)c(O)c1 39.8 µM [inhibitor, full curve]
Fc1ccc([C@@H]2CCNC[C@H]2COc2ccc3c(c2)OCO3)cc1 22.4 µM [inhibitor, full curve] and 39.8 µM [inhibitor, partial curve] and 28.2 µM [inhibitor, partial curve]
O=C(/C=C/c1ccccc1)NNC1=NS(=O)(=O)c2ccccc21 63.1 µM [inhibitor, partial curve]
COc1cc(NC(=O)c2cccc3c2C(=O)N(C2CCCCC2)C3)cc(OC)c1OC 44.7 µM [inhibitor, partial curve] and 63.1 µM [inhibitor, partial curve, poor fit]
Cc1ccc(Cc2nnc(SCC(=O)Nc3ccccc3)[nH]c2=O)cc1 2.82 µM [inhibitor, partial curve, poor fit]
CCN=c1scc(C)n1/N=C/c1ccsc1 44.7 µM [inhibitor, partial curve]
O=C1OC(/C=C/c2ccc(Cl)cc2Cl)=NC/1=C\c1cccs1 63.1 µM [inhibitor, partial curve, poor fit]
CN(Cc1ccco1)C(=O)CCc1nc2sc3c(c2c(=O)[nH]1)CCCC3 63.1 µM [inhibitor, partial curve]
OC(CSc1ccccc1Cl)CN1CCN(c2ccc(F)cc2)CC1 (stereo not drawn) 50.1 µM [inhibitor, partial curve]
COc1ccc(NC(=O)CN2C(=O)/C(=C3\SC(=S)N(CCC(=O)O)C3=O)c3ccccc32)cc1 39.8 µM [inhibitor, partial curve]
Cc1cc(C)nc(NNS(=O)(=O)c2c(C)cc(C(C)(C)C)cc2C)n1 35.5 µM [inhibitor, partial curve]
CCN1C(=O)C(O)(CC(=O)c2ccc(-n3cccc3)cc2)c2ccccc21 (stereo not drawn) 50.1 µM [inhibitor, partial curve]
O=C(CCCN1C(=O)/C(=C/c2cccs2)SC1=S)Nc1ccc(O)cc1 28.2 µM [inhibitor, full curve, poor fit]
COc1ccc(Oc2c(OC)cc([N+](=O)[O-])c3ncccc23)cc1 28.2 µM [inhibitor, full curve, poor fit]

Activity change, negative = inhibition, inactive:
CCOc1ccccc1NC(=O)CCc1c(C)nn(-c2ccc(N3CCOCC3)nn2)c1C -16.3%
COc1ccc(C=NNC(=O)c2ccccc2OCc2ccc(F)cc2)c(OC)c1 -17.8%
COc1cccc(C(=O)NC2CCN(CC(=O)NCc3ccccc3F)CC2)c1 -13%
CC1(C)OC(=O)C2(Cc3ccc(Cl)cc3N3CCCCC32)C(=O)O1 (stereo not drawn) -9.23% [at 57.1 µM]
C(=N\n1cnnc1)/c1ccc(-c2ccccc2)cc1 -5.56%
COCCn1nnnc1C(c1cccc(C(F)(F)F)c1)N1CCN(Cc2ccccc2)CC1 (stereo not drawn) -29.2%
CNc1ncnc2c1cnn2-c1ccc(C)c(C)c1 -10.7%
CCN(CC)CCNC(=O)C1CCN(c2nn3cc(-c4ccc(F)cc4)nc3s2)CC1 -30%

Activity change, negative = inhibition, inconclusive:
CC(C)(C)c1cc[n+](/C(C(=S)Nc2ccccc2F)=C(/[O-])c2ccc3c(c2)OCCO3)cc1 -38.4% [inhibitor]
